Measurements published in paper PMC3834829.
Where a chain is given by its changes, count along the chain named. In names and notes the source's numbering stands. These are yes or no findings as the source states them, for the method shown. For some of these results: Binding seen in cells or lysates may run through a third protein. Some entries that bind do so weakly or less than the wild type.

Columns and labels:
LexA-BCL11A RID2 Y656A = target: T1, LexA-BCL11A RID2 Y656A (UniProt Q9H165); test: two-hybrid; S. cerevisiae L40; LexA DBD fusion with VP16 AAD-NR fusion; β-galactosidase activity in cell-free extracts; vehicle only or no ligand
T1 sequence: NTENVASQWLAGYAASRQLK

LexA-BCL11A RID2 S657A = target: T2, LexA-BCL11A RID2 S657A (UniProt Q9H165); test: as above
T2 sequence: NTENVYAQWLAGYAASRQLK

LexA-BCL11A-(651–670) [1] = target: T3, LexA-BCL11A-(651–670) (UniProt Q9H165); test: as above
T3 sequence: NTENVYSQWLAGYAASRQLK

LexA-BCL11A-(310–325) [2] = target: T4, LexA-BCL11A-(310–325) (UniProt Q9H165); test: as above
T4 sequence: PPAMDFSRRLRELAGN

[3] = target: FLAG-BCL11A-XL (WT), HEK293 (UniProt Q9H165); test: co-IP; HEK293 co-transfected; nuclear extracts in Triton X-100 lysis buffer; FLAG-tagged BCL11A-XL precipitated with anti-FLAG M2; Western blot
[4] = target: FLAG-BCL11A-XL Y656A/W659A, HEK293 (UniProt Q9H165); test: as above
[5] = target: FLAG-BCL11A-XL L319A, HEK293 (UniProt Q9H165); test: as above
[6] = target: T5, LexA-COUP-TFII-LBD-(144–414) (UniProt P24468); test: two-hybrid; S. cerevisiae L40; LexA DBD fusion with VP16 AAD-NR fusion; β-galactosidase activity in cell-free extracts; vehicle only or no ligand
T5 sequence: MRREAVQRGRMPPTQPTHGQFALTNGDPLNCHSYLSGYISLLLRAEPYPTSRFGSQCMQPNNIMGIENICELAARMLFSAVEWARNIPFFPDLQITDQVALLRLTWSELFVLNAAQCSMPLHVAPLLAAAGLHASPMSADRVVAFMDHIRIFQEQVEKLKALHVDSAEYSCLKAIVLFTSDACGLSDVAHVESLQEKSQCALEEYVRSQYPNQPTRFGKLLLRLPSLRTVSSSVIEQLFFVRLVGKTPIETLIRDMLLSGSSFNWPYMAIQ

LexA-BCL11A-(651–670) [7] = target: T3, LexA-BCL11A-(651–670); test: two-hybrid; S. cerevisiae L40; LexA DBD fusion with VP16 AAD-NR fusion; β-galactosidase activity in cell-free extracts; 10^-6 M cognate ligand added
LexA-BCL11A-(310–325) [8] = target: T4, LexA-BCL11A-(310–325); test: as above

B1: AAD-EAR2-LBD-(121–399) (domain or fragment, UniProt P10588 121-399)
chain: MRKEAVQRGRIPHSLPGAVAASSGSPPGSALAAVASGGDLFPGQPVSELIAQLLRAEPYPAAAGRFGAGGGAAGAVLGIDNVCELAARLLFSTVEWARHAPFFPELPVADQVALLRLSWSELFVLNAAQAALPLHTAPLLAAAGLHAAPMAAERAVAFMDQVRAFQEQVDKLGRLQVDSAEYGCLKAIALFTPDACGLSDPAHVESLQEKAQVALTEYVRAQYPSQPQRFGRLLLRLPALRAVPASLISQLFFMRLVGKTPIETLIRDMLLSGSTFNWP
B1 was tested, and the binding (LexA-BCL11A RID2 Y656A) was “binds”, the binding (LexA-BCL11A RID2 S657A) was “binds” and the binding (LexA-BCL11A-(651–670) [1]) was “binds”. For the same binder, the binding (LexA-BCL11A-(310–325) [2]) was “binds”.

B2: COUP-TFII (pTL1-COUP-TFII), HEK293 (protein, UniProt P24468 1-414)
chain: MAMVVSTWRDPQDEVPGSQGSQASQAPPVPGPPPGAPHTPQTPGQGGPASTPAQTAAGGQGGPGGPGSDKQQQQQHIECVVCGDKSSGKHYGQFTCEGCKSFFKRSVRRNLSYTCRANRNCPIDQHHRNQCQYCRLKKCLKVGMRREAVQRGRMPPTQPTHGQFALTNGDPLNCHSYLSGYISLLLRAEPYPTSRFGSQCMQPNNIMGIENICELAARMLFSAVEWARNIPFFPDLQITDQVALLRLTWSELFVLNAAQCSMPLHVAPLLAAAGLHASPMSADRVVAFMDHIRIFQEQVEKLKALHVDSAEYSCLKAIVLFTSDACGLSDVAHVESLQEKSQCALEEYVRSQYPNQPTRFGKLLLRLPSLRTVSSSVIEQLFFVRLVGKTPIETLIRDMLLSGSSFNWPYMAIQ
For B2, the binding [3] was “binds”, the binding [4] was “binds” and the binding [5] was “binds”.

B3: AAD-COUP-TFII-LBD F221A (domain or fragment, UniProt P24468 144-414)
chain: T5 sequence with F78A
With B3 the binding [6] was “binds”, the binding (LexA-BCL11A-(651–670) [1]) was “no binding” and the binding (LexA-BCL11A-(310–325) [2]) was “no binding”.

B4: AAD-COUP-TFII-LBD V224A (domain or fragment, UniProt P24468 144-414)
chain: T5 sequence with V81A
With B4 the binding (LexA-BCL11A-(651–670) [1]) was “no binding” and the binding (LexA-BCL11A-(310–325) [2]) was “binds”.

B5: AAD-COUP-TFII-LBD I238A (domain or fragment, UniProt P24468 144-414)
chain: T5 sequence with I95A
For B5, the binding (LexA-BCL11A-(651–670) [1]) was “binds” and the binding (LexA-BCL11A-(310–325) [2]) was “binds”.

B6: AAD-COUP-TFII-LBD V242A (domain or fragment, UniProt P24468 144-414)
chain: T5 sequence with V99A
B6 was tested, and the binding (LexA-BCL11A-(651–670) [1]) was “binds” and the binding (LexA-BCL11A-(310–325) [2]) was “binds”.

B7: AAD-COUP-TFII-LBD R246A (domain or fragment, UniProt P24468 144-414)
chain: T5 sequence with R103A
For B7, the binding (LexA-BCL11A-(651–670) [1]) was “binds” and the binding (LexA-BCL11A-(310–325) [2]) was “binds”.

B8: AAD-COUP-TFII-LBD R228A (domain or fragment, UniProt P24468 144-414)
chain: T5 sequence with R85A
For B8, the binding (LexA-BCL11A-(651–670) [1]) was “binds” and the binding (LexA-BCL11A-(310–325) [2]) was “binds”.

B9: AAD-RARα-LBD-(200–462) (domain or fragment, UniProt P10276 200-462)
chain: PALCQLGKYTTNNSSEQRVSLDIDLWDKFSELSTKCIIKTVEFAKQLPGFTTLTIADQITLLKAACLDILILRICTRYTPEQDTMTFSDGLTLNRTQMHNAGFGPLTDLVFAFANQLLPLEMDDAETGLLSAICLICGDRQDLEQPDRVDMLQEPLLEALKVYVRKRRPSRPHMFPKMLMKITDLRSISAKGAERVITLKMEIPGSMPPLIQEMLENSEGLDTLSGQPGGGGRDGGGLAPPPGSCSPSLSPSSNRSSPATHSP
For B9, the binding (LexA-BCL11A-(651–670) [7]) was “no binding” and the binding (LexA-BCL11A-(310–325) [8]) was “no binding”.

B10: AAD-VDR-LBD-(123–426) (domain or fragment, UniProt P11473 123-426)
chain: KLSEEQQRIIAILLDAHHKTYDPTYSDFCQFRPPVRVNDGGGSHPSRPNSRHTPSFSGDSSSSCSDHCITSSDMMDSSSFSNLDLSEEDSDDPSVTLELSQLSMLPHLADLVSYSIQKVIGFAKMIPGFRDLTSEDQIVLLKSSAIEVIMLRSNESFTMDDMSWTCGNQDYKYRVSDVTKAGHSLELIEPLIKFQVGLKKLNLHEEEHVLLMAICIVSPDRPGVQDAALIEAIQDRLSNTLQTYIRCRHPPPGSHLLYAKMIQKLADLRSLNEEHSKQYRCLSFQPECSMKLTPLVLEVFGNEI
For B10, the binding (LexA-BCL11A-(651–670) [7]) was “no binding” and the binding (LexA-BCL11A-(310–325) [8]) was “no binding”.

B11: AAD-HNF4γ-LBD-(88–408) (domain or fragment, UniProt Q14541 88-408)
chain: RISTRRSTFDGSNIPSINTLAQAEVRSRQISVSSPGSSTDINVKKIASIGDVCESMKQQLLVLVEWAKYIPAFCELPLDDQVALLRAHAGEHLLLGATKRSMMYKDILLLGNNYVIHRNSCEVEISRVANRVLDELVRPFQEIQIDDNEYACLKAIVFFDPDAKGLSDPVKIKNMRFQVQIGLEDYINDRQYDSRGRFGELLLLLPTLQSITWQMIEQIQFVKLFGMVKIDNLLQEMLLGGASNDGSHLHHPMHPHLSQDPLTGQTILLGPMSTLVHADQISTPETPLPSPPQGSGQEQYKIAANQASVISHQHLSKQKQL
B11 was tested, and the binding (LexA-BCL11A-(651–670) [1]) was “no binding” and the binding (LexA-BCL11A-(310–325) [2]) was “no binding”.

B12: AAD-ERRα-LBD-(169–423) (domain or fragment, UniProt P11474 169-423)
chain: PLPFPGPFPAGPLAVAGGPRKTAAPVNALVSHLLVVEPEKLYAMPDPAGPDGHLPAVATLCDLFDREIVVTISWAKSIPGFSSLSLSDQMSVLQSVWMEVLVLGVAQRSLPLQDELAFAEDLVLDEEGARAAGLGELGAALLQLVRRLQALRLEREEYVLLKALALANSDSVHIEDAEAVEQLREALHEALLEYEAGRAGPGGGAERRRAGRLLLTLPLLRQTAGKVLAHFYGVKLEGKVPMHKLFLEMLEAMMD
For B12, the binding (LexA-BCL11A-(651–670) [1]) was “no binding” and the binding (LexA-BCL11A-(310–325) [2]) was “no binding”.

B13: AAD-COUP-TFII-LBD Δ12-(144–392) (domain or fragment, UniProt P24468 144-392)
chain: MRREAVQRGRMPPTQPTHGQFALTNGDPLNCHSYLSGYISLLLRAEPYPTSRFGSQCMQPNNIMGIENICELAARMLFSAVEWARNIPFFPDLQITDQVALLRLTWSELFVLNAAQCSMPLHVAPLLAAAGLHASPMSADRVVAFMDHIRIFQEQVEKLKALHVDSAEYSCLKAIVLFTSDACGLSDVAHVESLQEKSQCALEEYVRSQYPNQPTRFGKLLLRLPSLRTVSSSVIEQLFFVRLVGKTPI
B13 was tested, and the binding [6] was “no binding”, the binding (LexA-BCL11A-(651–670) [1]) was “no binding” and the binding (LexA-BCL11A-(310–325) [2]) was “no binding”.
